Target: T1, Cyno TfR ECD Avi-His (cynomolgus macaque, UniProt Q5RDH6 89-760 (Pongo abelii entry), biotin on the Avi tag (BirA) where captured on streptavidin)
T1 construct: also called Cyno TfR Avi-His; cyno TfR Avi-His
T1 chain: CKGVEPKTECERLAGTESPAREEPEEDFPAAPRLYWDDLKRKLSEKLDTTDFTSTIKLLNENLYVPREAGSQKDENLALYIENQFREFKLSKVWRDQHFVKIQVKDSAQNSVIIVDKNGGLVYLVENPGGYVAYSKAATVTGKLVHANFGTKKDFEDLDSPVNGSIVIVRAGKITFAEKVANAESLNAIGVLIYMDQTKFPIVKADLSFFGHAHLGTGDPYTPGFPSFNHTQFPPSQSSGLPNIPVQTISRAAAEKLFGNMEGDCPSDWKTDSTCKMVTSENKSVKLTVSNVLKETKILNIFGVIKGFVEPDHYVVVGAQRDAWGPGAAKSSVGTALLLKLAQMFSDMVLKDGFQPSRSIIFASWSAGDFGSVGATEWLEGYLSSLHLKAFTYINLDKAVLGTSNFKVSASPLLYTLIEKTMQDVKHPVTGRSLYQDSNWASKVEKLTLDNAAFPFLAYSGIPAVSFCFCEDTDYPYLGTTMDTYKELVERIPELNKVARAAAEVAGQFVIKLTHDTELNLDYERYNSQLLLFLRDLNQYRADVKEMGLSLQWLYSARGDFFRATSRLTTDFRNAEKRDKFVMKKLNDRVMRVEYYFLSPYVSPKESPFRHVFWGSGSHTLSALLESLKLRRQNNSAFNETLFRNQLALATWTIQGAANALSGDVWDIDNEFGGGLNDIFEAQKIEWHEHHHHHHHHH
Assay: BLI (GatorBio), biotinylated TfR on probe

- Kd: 37 nM
B1: TfR15.WH8.1 2+1 anti-TfR bispecific antibody (bispecific antibody, human IgG1, kappa)
heavy 1: EVRLLESGGGLVQPGGSLRLSCAASGFTFSNYAMGWVRQAPGKGLEWVSAISGSGGSTYYADSVKGRFTTSRDDSKNALYLQMNSLRAEDTAVYYCARGGPGWYAADVWGQGTTVTVSSASTKGPSVFPLAPSSKSTSGGTAALGCLVKDYFPEPVTVSWNSGALTSGVHTFPAVLQSSGLYSLSSVVTVPSSSLGTQTYICNVNHKPSNTKVDKKV[here human IgG1 Fc with changes without letters]GGGGSGGGGSGGGGSQVQLVQSGAEVKKPGASVKVSCKASGYTFTSYYMHWVRQAPGQGLEWMGNIYPGSGSSNYAQKFQGRVTMTRDTSTSTVYMELSSLRSEDTAVYYCTRSSYYGNFDTMDNWGQGTTVTVSSGGSEGKSSGSGSESKSTGGSEIVLTQSPATLSLSPGERATLSCRASSSIRYMNWYQQKPGQAPRRLIYDTSNRATGIPARFSGSGSGTDFTLTISSLEPEDFAVYYCHQRSSYPWTFGGGTKVEIK
heavy 2: EVRLLESGGGLVQPGGSLRLSCAASGFTFSNYAMGWVRQAPGKGLEWVSAISGSGGSTYYADSVKGRFTTSRDDSKNALYLQMNSLRAEDTAVYYCARGGPGWYAADVWGQGTTVTVSS[here human IgG1 constant region with changes without letters]
light: DIQMTQSPSSLSASVGDRVTITCRASQSISSYLNWYQQKPGKAPKLLIYAASSLQSGVPSRFSGSGSGTDFTLTISSLQPEDFATYYCQQADLPAFAFGGGTKVEIKRTVAAPSVFIFPPSDEQLKSGTASVVCLLNNFYPREAKVQWKVDNALQSGNSQESVTEQDSKDSTYSLSSTLTLSKADYEKHKVYACEVTHQGLSSPVTKSFNRGEC
notes: 2+1
